Assay results taken from the supplement of paper PMC9446081.
In all, about 39,000 compounds went through this assay and about 220 (0.56%) showed activity. The list shows a part of the results.

Test system: Escherichia coli K-12 BW25113
Experiment: relative growth (OD600 normalised to plate interquartile mean) (fraction); higher = less growth inhibition, active = 0.2 or less
Conditions: 50 µM; LB; incubation time: overnight (16-24 h)
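Also: static incubation at 37 °C against the wild-type strain, values averaged over two biological replicates.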

How did the relative growth turn out when `C[C@H]1CCCCO[C@H](CN(C)C(=O)CCCN(C)C)[C@@H](C)CN([C@@H](C)CO)C(=O)c2cc(NC(=O)Nc3ccc(F)cc3)ccc2O1` was run?
Its relative growth is inactive: 1.03.

With `C1CCC(C(CC2CCCCN2)C2CCCCC2)CC1.O=C(O)C=CC(=O)O` (configuration not stated) as the molecule, how does the relative growth read?
The relative growth was inactive: 0.52.

For `CN(c1c[nH]c(=O)[nH]c1=O)C1CCCCC1`, which relative growth is on record?
Its relative growth is inactive: 1.03.

How did the relative growth turn out when `C[C@@H]1CCCCO[C@H](CN(C)S(=O)(=O)c2ccc(F)cc2)[C@@H](C)CN([C@H](C)CO)C(=O)c2cc(NC(=O)Cc3ccccc3)ccc2O1` was run?
Its relative growth is inactive: 0.953.

`CC(C)NC(=O)Nc1ccc2c(c1)CC(=O)N([C@@H](C)CO)C[C@H](C)[C@H](CN(C)C(=O)NC1CCCCC1)O2` was tested. Which relative growth did it give?
Its relative growth is inactive: 0.929.

With `Cc1ccc(S(=O)(=O)N(C)C[C@H]2OCCCC[C@H](C)Oc3ccc(NS(=O)(=O)c4ccc(F)cc4)cc3C(=O)N([C@H](C)CO)C[C@@H]2C)cc1` as the molecule, how does the relative growth read?
Its relative growth is inactive: 1.03.

For `C[C@H]1CN([C@@H](C)CO)C(=O)c2cc(NC(=O)NC3CCCCC3)ccc2O[C@H]1CN(C)S(C)(=O)=O`, which relative growth is on record?
The relative growth was inactive: 1.01.

Which relative growth does the source give for `COc1ccccc1NC(=O)N(C)C[C@@H]1Oc2ncc(C#CCN(C)C)cc2C(=O)N([C@H](C)CO)C[C@@H]1C` here?
The relative growth was inactive: 1.

How did the relative growth turn out when `C[C@H]1CCCCO[C@@H](CN(C)Cc2ccc(C(=O)O)cc2)[C@@H](C)CN([C@@H](C)CO)C(=O)c2cc(NC(=O)Nc3ccc(F)cc3)ccc2O1` was run?
Its relative growth is inactive: 1.02.

Which relative growth does the source give for `C[C@@H]1CN([C@H](C)CO)C(=O)c2cc(NC(=O)Nc3ccc4c(c3)OCO4)ccc2O[C@@H](C)CCCCO[C@@H]1CN(C)CC1CCCCC1` here?
The relative growth was inactive: 0.993.

With `Cc1ccccc1S(=O)(=O)N1C[C@H](O)COC[C@@H]2O[C@@H](CC(=O)N3CCN(C)CC3)CC[C@H]21` as the molecule, how does the relative growth read?
The relative growth was inactive: 1.01.

Which relative growth does the source give for `COc1ccc(S(=O)(=O)Nc2ccc3c(c2)C(=O)N([C@H](C)CO)C[C@@H](C)[C@@H](CN(C)S(=O)(=O)c2ccc(C)cc2)O3)cc1` here?
The relative growth was inactive: 1.06.

How did the relative growth turn out when `C[C@@H]1CN([C@@H](C)CO)C(=O)c2cc(NC(=O)NC3CCCCC3)ccc2O[C@@H](C)CCCCO[C@H]1CN(C)CC1CCCCC1` was run?
The relative growth was inactive: 0.905.

How did the relative growth turn out when `CCc1nc2ccc(C(=O)Nc3cc(-c4ccccc4)ccc3OC)cn2c1N(C)Cc1ccc(Cl)cc1` was run?
The relative growth was inactive: 1.01.

How did the relative growth turn out when `Cc1noc(C)c1NC(N)=O` was run?
Its relative growth is inactive: 0.995.

For `COc1ccc(S(=O)(=O)N(C)C[C@@H]2Oc3c(NC(=O)Nc4c(C)noc4C)cccc3C(=O)N([C@H](C)CO)C[C@@H]2C)cc1`, which relative growth is on record?
Its relative growth is inactive: 0.98.

`O=C(O)[C@H](O)[C@@H](O)[C@H](O[C@@H]1O[C@H](CO)[C@H](O)[C@H](O)[C@H]1O)[C@H](O)CO` was tested. Which relative growth did it give?
Its relative growth is inactive: 0.967.

How did the relative growth turn out when `Cc1noc(C)c1S(=O)(=O)Nc1cccc2c1O[C@@H](CN(C)C(=O)NC1CCCCC1)[C@@H](C)CN([C@@H](C)CO)C2=O` was run?
The relative growth was inactive: 0.982.

Which relative growth does the source give for `C[C@H](CO)N1C[C@H](C)[C@H](CN(C)Cc2ccc(F)cc2)Oc2cc(C#CC(C)(C)O)ccc2S1(=O)=O` here?
Its relative growth is inactive: 0.93.

Which relative growth does the source give for `COc1ccc(NC(=O)Nc2ccc3c(c2)C(=O)N([C@H](C)CO)C[C@@H](C)[C@H](CN(C)Cc2ccc4c(c2)OCO4)OCCCC[C@H](C)O3)cc1` here?
The relative growth was inactive: 0.977.

`Cc1ccccc1-c1ccc2c(c1)O[C@H](CN(C)C(=O)Nc1ccc(C(F)(F)F)cc1)[C@H](C)CN([C@@H](C)CO)S2(=O)=O` was tested. Which relative growth did it give?
Its relative growth is inactive: 1.03.

`C[C@@H]1CN([C@@H](C)CO)C(=O)c2cccc(NC(=O)c3cnccn3)c2O[C@@H]1CN(C)S(C)(=O)=O` was tested. Which relative growth did it give?
The relative growth was inactive: 0.98.

Which relative growth does the source give for `C[C@@H]1CCCCO[C@@H](CN(C)C(=O)c2ccccc2)[C@@H](C)CN([C@H](C)CO)C(=O)c2cc(NS(=O)(=O)c3ccccc3)ccc2O1` here?
Its relative growth is inactive: 1.02.

`C[C@@H]1CCCCO[C@H](CN(C)C(=O)C2CCCCC2)[C@H](C)CN([C@@H](C)CO)C(=O)c2cc(NS(=O)(=O)c3ccc(F)cc3)ccc2O1` was tested. Which relative growth did it give?
The relative growth was inactive: 0.94.

For `COc1ccc2c(c1)[C@@H](NCC=C(C)C)[C@H](C)[C@H]2c1ccccc1`, which relative growth is on record?
Its relative growth is inactive: 1.

How did the relative growth turn out when `CO[C@@H]1CN(C)C(=O)c2cc(NS(C)(=O)=O)ccc2OC[C@@H](C)N(S(=O)(=O)CC(F)(F)F)C[C@H]1C` was run?
The relative growth was inactive: 0.976.

`COc1ccc(S(=O)(=O)N(C)C[C@@H]2Oc3ccc(NC(=O)CCN4CCOCC4)cc3C(=O)N([C@H](C)CO)C[C@H]2C)cc1` was tested. Which relative growth did it give?
The relative growth was inactive: 0.99.

For `C[C@H](C(=O)O)N1C(=O)c2ccccc2C1=O`, which relative growth is on record?
The relative growth was inactive: 1.01.

Which relative growth does the source give for `COc1ccc(NC(=O)Nc2ccc3c(c2)C(=O)N([C@H](C)CO)C[C@H](C)[C@H](CN(C)Cc2ccncc2)OCCCC[C@@H](C)O3)cc1` here?
The relative growth was inactive: 0.967.

For `COCC#Cc1cnc2c(c1)C(=O)N([C@H](C)CO)C[C@H](C)[C@H](CN(C)C(C)=O)O2`, which relative growth is on record?
The relative growth was inactive: 1.01.

`C[C@H]1CN([C@@H](C)CO)S(=O)(=O)c2ccc(C#Cc3ccccc3F)cc2O[C@H]1CN(C)C(=O)Cc1ccncc1` was tested. Which relative growth did it give?
The relative growth was inactive: 1.01.

Which relative growth does the source give for `C[C@@H]1CN([C@@H](C)CO)C(=O)c2cccc(NS(=O)(=O)c3cccs3)c2O[C@@H]1CN(C)S(=O)(=O)c1ccc(F)cc1` here?
Its relative growth is inactive: 0.93.

How did the relative growth turn out when `COc1cccc(NC(=O)N[C@H]2CC[C@@H](CC(=O)N3CCOCC3)O[C@@H]2CO)c1` was run?
Its relative growth is inactive: 0.998.

Which relative growth does the source give for `C[C@H](CO)N1C[C@H](C)[C@@H](CN(C)Cc2ccc(-c3ccccc3)cc2)Oc2ccc(NC(=O)CCC(F)(F)F)cc2C1=O` here?
Its relative growth is inactive: 0.894.

`CNC1C(O)C(OC2C(N)CC(N)C(OC3OC(CN)=CCC3N)C2O)OCC1(C)O.O=S(=O)(O)O` (configuration not stated) was tested. Which relative growth did it give?
Its relative growth is inactive: 1.18.

With `C[C@H]1CCCCO[C@@H](CN(C)C(=O)NC2CCCCC2)[C@@H](C)CN([C@@H](C)CO)C(=O)c2cc(NC(=O)c3ccccc3)ccc2O1` as the molecule, how does the relative growth read?
Its relative growth is inactive: 1.03.

How did the relative growth turn out when `O=C1NC(=O)[C@]2(CCc3ccccc32)N1` was run?
The relative growth was inactive: 1.01.

For `C[C@H]1CCCCO[C@H](CN(C)Cc2ccccc2)[C@@H](C)CN([C@@H](C)CO)C(=O)c2cc(NC(=O)Cc3ccccc3)ccc2O1`, which relative growth is on record?
The relative growth was inactive: 0.943.

For `CO[C@@H]1CN(C)C(=O)c2cc(NS(C)(=O)=O)ccc2OC[C@H](C)N(C(=O)C2CCCCC2)C[C@@H]1C`, which relative growth is on record?
Its relative growth is inactive: 0.974.

`CN1CCN(C(=O)C[C@H]2CC[C@@H]3[C@H](COC[C@H](O)CN3S(=O)(=O)c3cccc(Cl)c3)O2)CC1` was tested. Which relative growth did it give?
Its relative growth is inactive: 0.969.

With `CC1CCC(NC(=O)N(CCCl)[NH2+][O-])CC1` (configuration not stated) as the molecule, how does the relative growth read?
Its relative growth is inactive: 0.998.

How did the relative growth turn out when `COc1cccc(NC(=O)N[C@@H]2CC[C@@H](CC(=O)N3CCOCC3)O[C@H]2CO)c1` was run?
The relative growth was inactive: 1.01.

How did the relative growth turn out when `O=C(C[C@H]1C=C[C@H](NC(=O)c2ccncc2)[C@H](CO)O1)NCc1ccncn1` was run?
The relative growth was inactive: 0.978.

For `COc1ccc(C#Cc2ccc3c(c2)O[C@H](CN(C)C(=O)CN2CCOCC2)[C@@H](C)CN([C@@H](C)CO)S3(=O)=O)cc1`, which relative growth is on record?
The relative growth was inactive: 0.986.

`CC(=O)OC[C@H]1O[C@@H](n2cc(C)c(=O)[nH]c2=O)C[C@@H]1OC(C)=O` was tested. Which relative growth did it give?
Its relative growth is inactive: 1.03.

`CCOc1ccnc2c1c(=O)n(CC(N)=O)c(=O)n2C` was tested. Which relative growth did it give?
Its relative growth is inactive: 1.

For `Cc1ccc(S(=O)(=O)N(C)C[C@@H]2Oc3cc(C#Cc4ccncc4)ccc3S(=O)(=O)N([C@H](C)CO)C[C@H]2C)cc1`, which relative growth is on record?
Its relative growth is inactive: 1.04.

For `C[C@H](CO)N1C[C@H](C)[C@@H](CN(C)C(=O)Nc2cccc3ccccc23)Oc2c(NC(=O)c3ccc(-c4nccs4)cc3)cccc2C1=O`, which relative growth is on record?
The relative growth was inactive: 1.06.

For `Cc1ccc(S(=O)(=O)N(C)C[C@@H]2Oc3ccc(NC(=O)CCCN(C)C)cc3C(=O)N([C@H](C)CO)C[C@@H]2C)cc1`, which relative growth is on record?
The relative growth was inactive: 1.

With `C[C@@H]1CN([C@@H](C)CO)S(=O)(=O)c2ccc(C#CC3CCCCC3)cc2O[C@@H]1CN(C)C(=O)Cc1ccncc1` as the molecule, how does the relative growth read?
The relative growth was inactive: 0.995.

For `Oc1ccc([C@H]2Oc3cc(O[C@@H]4OC[C@H](O)[C@@H](O)[C@@H]4O)cc(O)c3C[C@@H]2O)cc1O`, which relative growth is on record?
Its relative growth is inactive: 0.996.

For `COc1ccc2c3c([nH]c2c1)[C@@H](CO)N(C[C@]13CN(C1)S(=O)(=O)C)C(=O)C1CCOCC1`, which relative growth is on record?
The relative growth was inactive: 0.895.

`C[C@@H]1CN([C@H](C)CO)C(=O)c2cc(NC(=O)CCC(F)(F)F)ccc2O[C@@H](C)CCCCO[C@H]1CN(C)C(=O)Nc1ccccc1` was tested. Which relative growth did it give?
The relative growth was inactive: 1.02.

With `COc1cc(O)ccc1C(C)=O` as the molecule, how does the relative growth read?
The relative growth was inactive: 1.03.

With `C[C@@H]1CCCCO[C@@H](CN(C)Cc2ccc(C(F)(F)F)cc2)[C@@H](C)CN([C@H](C)CO)C(=O)c2cc(NC(=O)NC3CCCCC3)ccc2O1` as the molecule, how does the relative growth read?
The relative growth was inactive: 0.974.

With `Cc1ccc(S(=O)(=O)Nc2ccc3c(c2)C(=O)N([C@H](C)CO)C[C@@H](C)[C@@H](CN(C)C(=O)NC(C)C)O3)cc1` as the molecule, how does the relative growth read?
The relative growth was inactive: 0.975.

For `COc1ccc(S(=O)(=O)Nc2cccc3c2O[C@H](CN(C)S(=O)(=O)c2ccc(OC)cc2)[C@H](C)CN([C@@H](C)CO)C3=O)cc1`, which relative growth is on record?
The relative growth was inactive: 1.04.

Which relative growth does the source give for `C[C@H](CO)N1C[C@H](C)[C@@H](CN(C)Cc2ccc(Oc3ccccc3)cc2)Oc2ccc(NS(=O)(=O)c3ccc(F)cc3)cc2CC1=O` here?
The relative growth was inactive: 0.948.

With `CCOC(=O)Cc1n[nH]c(=O)[nH]c1=O` as the molecule, how does the relative growth read?
Its relative growth is inactive: 1.01.

Which relative growth does the source give for `COc1cccc(C#Cc2ccc([C@@H]3[C@@H](CO)N4C(=O)CN(S(=O)(=O)c5ccccc5C)C[C@@H]34)cc2)c1` here?
The relative growth was inactive: 1.03.

`C/C=C/c1cnc2c(c1)C(=O)N([C@H](C)CO)C[C@H](C)[C@H](CN(C)S(=O)(=O)c1ccc(OC)cc1)O2` was tested. Which relative growth did it give?
The relative growth was inactive: 0.975.

`C[C@@H]1CN([C@H](C)CO)C(=O)c2cccc(NC(=O)C3CCCCC3)c2O[C@@H]1CN(C)Cc1ccc(C(=O)Nc2ccccc2N)cc1` was tested. Which relative growth did it give?
Its relative growth is inactive: 0.988.
